Structures can show the parent of a compound that is named as a salt. Starred links: 1 amine or outer side, 2 acyl side, 3 side chain; linkers in the order of their positions; H or OH if unused. Positions of bridges follow the written chain, without caps; N, C: chain ends. Non-standard residues stand in square brackets, D forms with d. Residues, ends and D or L forms follow the SMILES beside them. Chains are numbered I, II in the order given. Actinocin(9to1) = Cc1c2oc3c(C)ccc(C(=O)[*:1])c3nc-2c(C(=O)[*:2])c(N)c1=O; NMeV = CN[C@H](C(=O)O)C(C)C; Sar = CNCC(=O)O
How the values were obtained:
HUVEC-TIE2-WT = assay: cells; details: Homo sapiens; for inhibition at 20 µM: read-out: Average proliferation Inhibition rate (%) WT
HUVEC-TIE2-L914F = assay: cells; details: Homo sapiens; for inhibition at 20 µM: read-out: Average proliferation Inhibition rate (%) L914F; for IC50: read-out: IC50 L914F

Structure (SMILES)	inhibition at 20 µM (HUVEC-TIE2-WT) [%]	inhibition at 20 µM (HUVEC-TIE2-L914F) [%]	IC50 (HUVEC-TIE2-WT; read-out: IC50 WT) [µM]	IC50 (HUVEC-TIE2-L914F) [µM]
C/C(=C\c1csc(C)n1)[C@@H]1C[C@@H]2O[C@]2(C)CCC[C@H](C)[C@H](O)[C@@H](C)C(=O)C(C)(C)[C@@H](O)CC(=O)N1 [Ixabepilone]	60.2	79.7		
Cc1ccc(Nc2nccc(N(C)c3ccc4c(C)n(C)nc4c3)n2)cc1S(N)(=O)=O [Pazopanib hydrochloride]	31.8	45.3		
CNC(=O)c1cc(Oc2ccc(NC(=O)Nc3ccc(Cl)c(C(F)(F)F)c3)cc2)ccn1 [Sorafenib]	8.77	49.6	> 10	> 10
O=c1[nH]c(=O)n([C@H]2C[C@H](O)[C@@H](CO)O2)cc1F [Floxuridine]	10.7	19.6		
CC[C@]1(O)C[C@H]2CN(CCc3c([nH]c4ccccc34)[C@@](C(=O)OC)(c3cc4c(cc3OC)N(C=O)[C@H]3[C@@](O)(C(=O)OC)[C@H](OC(C)=O)[C@]5(CC)C=CCN6CC[C@]43[C@@H]65)C2)C1 [Vincristine sulfate]	29.4	32.8		
O=C(c1cc(Cc2n[nH]c(=O)c3ccccc23)ccc1F)N1CCN(C(=O)C2CC2)CC1 [Olaparib]	11	11.5		
CN(N=O)C(=O)N[C@@H](C=O)[C@@H](O)[C@H](O)[C@H](O)CO [Streptozocin]	-5.84	-0.95		
NCC(=O)CCC(=O)O [Aminolevulinic acid hydrochloride]	-3.6	-1.31		
CC(C)Cn1cnc2c(N)nc3ccccc3c21 [Imiquimod]	-3.32	2.68		
Cc1cc(Nc2ncc(Cl)c(Nc3ccccc3S(=O)(=O)C(C)C)n2)c(OC(C)C)cc1C1CCNCC1 [Ceritinib]		76.6		9.03 ± 1.38
COC(=O)C[C@](O)(CCCC(C)(C)O)C(=O)O[C@@H]1C(OC)=C[C@]23CCCN2CCc2cc4c(cc2[C@H]13)OCO4 [Omacetaxine-mepesuccinate]	67.6			
CC(=O)O[C@]1(C(C)=O)CC[C@H]2[C@@H]3C=C(C)C4=CC(=O)CC[C@]4(C)[C@H]3CC[C@@]21C [Megestrol-acetate]	-7.37	2.95		
Nc1nc(F)nc2c1ncn2[C@@H]1O[C@H](COP(=O)(O)O)[C@@H](O)[C@@H]1O [Fludarabine phosphate]	-2.3	1.21		
CC(=O)O[C@@]12CO[C@@H]1C[C@H](O)[C@@]1(C)C(=O)[C@H](O)C3=C(C)[C@@H](OC(=O)[C@H](O)[C@@H](NC(=O)OC(C)(C)C)c4ccccc4)C[C@@](O)([C@@H](OC(=O)c4ccccc4)[C@H]21)C3(C)C [Docetaxel]	31.5	18.4		
CN(C)c1nc(N(C)C)nc(N(C)C)n1 [Altretamine]	-0.88	-3.57		
O=P1(NCCCl)OCCCN1CCCl (stereo not drawn) [Ifosfamide]	-0.66	4.47		
COc1cccc2c1C(=O)c1c(O)c3c(c(O)c1C2=O)C[C@@](O)(C(=O)CO)C[C@@H]3O[C@H]1C[C@H](N)[C@H](O)[C@H](C)O1 [Doxorubicin hydrochloride]	55.4	64.5		
COc1c2occc2cc2ccc(=O)oc12 [Methoxsalen]	-1.69	-0.04		
CC/C(=C(\c1ccccc1)c1ccc(OCCN(C)C)cc1)c1ccccc1 [Tamoxifen citrate]	37.3	10.4		
NC(=O)NO [Hydroxyurea]	-1.53	-2.83		
C#CCC(Cc1cnc2nc(N)nc(N)c2n1)c1ccc(C(=O)N[C@@H](CCC(=O)O)C(=O)O)cc1 (stereo partly drawn) [Pralatrexate]	-13.5	34.6		
CS(=O)(=O)c1ccc(C(=O)Nc2ccc(Cl)c(-c3ccccn3)c2)c(Cl)c1 [Vismodegib]	-9.97	1.57		
Cn1nnc2c(C(N)=O)ncn2c1=O [Temozolomide]	0.12	-1.03		
Nc1nc2nc[nH]c2c(=S)[nH]1 [Thioguanine]	30.8	47.6		

Structure (SMILES)	inhibition at 20 µM (HUVEC-TIE2-WT) [%]	inhibition at 20 µM (HUVEC-TIE2-L914F) [%]	IC50 (HUVEC-TIE2-WT; read-out: IC50 WT) [µM]	IC50 (HUVEC-TIE2-L914F) [µM]
C[C@@H](CN1CC(=O)NC(=O)C1)N1CC(=O)NC(=O)C1 [Dexrazoxane]	5.76	10.8		
O=C(/C=C/c1cccc(S(=O)(=O)Nc2ccccc2)c1)NO [Belinostat]	37.3	54.6		
O=C(CCBr)N1CCN(C(=O)CCBr)CC1 [Pipobroman]	3.55	10.1		
Nc1cccc2c1CN(C1CCC(=O)NC1=O)C2=O (stereo not drawn) [Lenalidomide]	-2.09	4.46		
CCCCCOC(=O)Nc1nc(=O)n([C@@H]2O[C@H](C)[C@@H](O)[C@H]2O)cc1F [Capecitabine]	-1.49	1.06		
C[C@]12CC[C@@H]3c4ccc(OC(=O)N(CCCl)CCCl)cc4CC[C@H]3[C@@H]1CC[C@@H]2OP(=O)(O)O [Estramustine phosphate sodium]	-3.54	-2.46		
CCC1=C[C@@H]2CN(C1)Cc1c([nH]c3ccccc13)[C@@](C(=O)OC)(c1cc3c(cc1OC)N(C)[C@H]1[C@@](O)(C(=O)OC)[C@H](OC(C)=O)[C@]4(CC)C=CCN5CC[C@]31[C@@H]54)C2 [Vinorelbine tartrate]	36	35.3		
O=C(O)CCCc1ccc(N(CCCl)CCCl)cc1 [Chlorambucil]	3.69	10.8		
NCCCNCCSP(=O)(O)O [Amifostine]	-11.5	0.66		
CN(Cc1cnc2nc(N)nc(N)c2n1)c1ccc(C(=O)N[C@@H](CCC(=O)O)C(=O)O)cc1 [Methotrexate]	-7.58	-2.85		
C=CC(=O)N1CCC[C@@H](n2nc(-c3ccc(Oc4ccccc4)cc3)c3c(N)ncnc32)C1 [Ibrutinib]	25.8	24.5		
CCCS(=O)(=O)Nc1ccc(F)c(C(=O)c2c[nH]c3ncc(-c4ccc(Cl)cc4)cc23)c1F [Vemurafenib]	-4.4	0.7		
S=P(N1CC1)(N1CC1)N1CC1 [Thiotepa]	8.06	10.2		
CC[C@@]1(O)C(=O)OCc2c1cc1n(c2=O)Cc2cc3c(CN(C)C)c(O)ccc3nc2-1 [Topotecan hydrochloride]	63.8	68.4		
COc1nc(N)nc2c1ncn2[C@@H]1O[C@H](CO)[C@@H](O)[C@@H]1O [Nelarabine]	-0.28	3		
Cc1c2oc3c(C)ccc(C(=O)N[C@@H]4C(=O)N[C@H](C(C)C)C(=O)N5CCC[C@H]5C(=O)N(C)CC(=O)N(C)[C@@H](C(C)C)C(=O)O[C@@H]4C)c3nc-2c(C(=O)N[C@@H]2C(=O)N[C@H](C(C)C)C(=O)N3CCC[C@H]3C(=O)N(C)CC(=O)N(C)[C@@H](C(C)C)C(=O)O[C@@H]2C)c(N)c1=O [Dactinomycin] (I: T[dV]P[Sar][NMeV] / II: T[dV]P[Sar][NMeV]; ester I:1-I:C, II:1-II:C; linker I:N-II:N via Actinocin(9to1))	45	60.4		
Nc1nc2[nH]cc(CCc3ccc(C(=O)N[C@@H](CCC(=O)O)C(=O)O)cc3)c2c(=O)[nH]1 [Pemetrexed disodium salt]	-2.57	5.13		
C[C@]12CC[C@H](O)CC1=CC[C@@H]1[C@@H]2CC[C@]2(C)C(c3cccnc3)=CC[C@@H]12 [Abiraterone]	-7.15	5.33		
O=C(c1ccc(OCCN2CCCCC2)cc1)c1c(-c2ccc(O)cc2)sc2cc(O)ccc12 [Raloxifene]	28.2	7.46		
CNC(=O)c1ccc(N2C(=S)N(c3ccc(C#N)c(C(F)(F)F)c3)C(=O)C2(C)C)cc1F [Enzalutamide]	66.5	80.9		
CO[C@@]12[C@H](COC(N)=O)C3=C(C(=O)C(C)=C(N)C3=O)N1C[C@@H]1N[C@@H]12 [Mitomycin]	53.5	69.4		
O=c1[nH]cc(F)c(=O)[nH]1 [Fluorouracil]	16.4	32.7		
COc1cc([C@@H]2c3cc4c(cc3[C@@H](O[C@@H]3O[C@@H]5CO[C@@H](C)O[C@H]5[C@H](O)[C@H]3O)[C@H]3COC(=O)[C@H]23)OCO4)cc(OC)c1O [Etoposide]	26.5	34.6		
CCN(CC)CCNC(=O)c1c(C)[nH]c(/C=C2\C(=O)Nc3ccc(F)cc32)c1C [Sunitinib]	38.5			
